Source: PMC4336329 (PLoS ONE, 2015)
About 14,000 (4.5%) of roughly 310,000 compounds showed an effect of 50% or more. The effect is printed as a negative number. This is one part of the list.

molecular target: human ether-à-go-go-related gene (hERG) potassium channel (human, UniProt Q12809); experiment: primary screen, population patch clamp on CHO cells stably expressing hERG
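Further: peak tail current of the secondary pulse compared with the same well before compound.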

Chain of human ether-à-go-go-related gene (hERG) potassium channel (Q12809 whole entry, looked up): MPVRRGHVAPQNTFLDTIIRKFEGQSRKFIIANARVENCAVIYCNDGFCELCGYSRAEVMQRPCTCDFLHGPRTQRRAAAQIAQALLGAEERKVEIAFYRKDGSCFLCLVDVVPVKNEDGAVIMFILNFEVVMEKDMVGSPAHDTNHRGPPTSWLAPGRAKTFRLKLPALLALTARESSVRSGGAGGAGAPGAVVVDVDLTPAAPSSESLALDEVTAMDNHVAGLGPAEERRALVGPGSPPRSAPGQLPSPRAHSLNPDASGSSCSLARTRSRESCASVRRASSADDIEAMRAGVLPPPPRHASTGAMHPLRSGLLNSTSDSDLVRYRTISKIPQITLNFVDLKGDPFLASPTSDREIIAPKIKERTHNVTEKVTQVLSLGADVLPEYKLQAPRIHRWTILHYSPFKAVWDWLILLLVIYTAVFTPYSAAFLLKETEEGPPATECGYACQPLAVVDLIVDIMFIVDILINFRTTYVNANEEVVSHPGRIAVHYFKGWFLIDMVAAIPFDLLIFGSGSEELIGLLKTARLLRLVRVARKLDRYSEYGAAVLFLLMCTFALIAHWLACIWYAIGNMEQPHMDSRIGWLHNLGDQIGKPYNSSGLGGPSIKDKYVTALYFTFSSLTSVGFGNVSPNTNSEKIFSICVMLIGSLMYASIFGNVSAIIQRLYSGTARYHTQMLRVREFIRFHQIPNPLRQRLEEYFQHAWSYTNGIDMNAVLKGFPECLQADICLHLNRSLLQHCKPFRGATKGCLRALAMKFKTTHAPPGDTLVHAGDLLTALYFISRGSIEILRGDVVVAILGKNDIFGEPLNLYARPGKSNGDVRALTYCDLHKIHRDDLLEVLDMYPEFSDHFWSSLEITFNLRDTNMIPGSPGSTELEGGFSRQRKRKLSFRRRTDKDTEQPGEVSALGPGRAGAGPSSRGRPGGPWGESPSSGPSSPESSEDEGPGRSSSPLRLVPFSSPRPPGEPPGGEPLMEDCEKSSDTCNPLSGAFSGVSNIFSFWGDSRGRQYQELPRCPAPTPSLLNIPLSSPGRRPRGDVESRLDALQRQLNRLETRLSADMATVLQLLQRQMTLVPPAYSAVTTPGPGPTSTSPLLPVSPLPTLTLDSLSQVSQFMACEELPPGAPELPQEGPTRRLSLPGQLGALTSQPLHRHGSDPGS

| Compound | hERG current change (%, negative = inhibition) at 10uM [%] |
| --- | --- |
| CCN(CC)C(=O)C(=O)Nc1cccc(Br)c1 | 8.53 |
| O=c1[nH]c2ccccc2c(=O)n1Cc1ccccc1 | 21.9 |
| C/C(=N\NC(=O)c1ccc(=O)[nH]n1)c1cccnc1 | 6.79 |
| Cn1c(=O)[nH]c(=O)c2c1nc(CN(Cc1ccccc1)Cc1ccccc1)n2CCN1CCOCC1 | -16.6 |
| CCOc1ccc(C(=O)CCC(=O)NC2=NCCS2)cc1 | 6.73 |
| Cc1cccc(CCNC(=O)CCS(=O)(=O)c2ccc(Br)cc2)c1 | 8.8 |
| CCCCNC(=O)CCCCCn1c(=O)[nH]c2cc(C(=O)OC)ccc2c1=O | 10.2 |
| Cc1cccc(S(=O)(=O)Nc2ccc(C)c3c2OC(C)(C)C3)c1 | -14.5 |
| O=C(CSc1n[nH]c(-c2ccncc2)n1)Nc1ccccc1 | 4.93 |
| Cc1cc(C)c2c(c1)NC(=O)C2(O)CC(=O)c1cccs1 (stereo not shown) | -1.5 |
| O=C(CSc1nnc2sc3ccccc3n12)N1CCN(c2ccccc2)CC1 | -25.8 |
| O=C(NNC(=O)c1ccccc1-n1cccc1)c1ccccc1 | -18.3 |
| CC1CN(C(=O)COC(=O)c2cccs2)CC(C)O1 (stereo not shown) | 21.5 |
| Cn1c(C(=O)OC(C(=O)NC(C)(C)C)c2cccnc2)cc2sccc21 (stereo not shown) | 8.92 |
| COc1cccc2c(C)nc(Nc3nc(CSc4nnc(C)s4)cc(=O)[nH]3)nc12 | 7.84 |
| COc1cccc(-c2cc(C(=O)NCCN3CCOCC3)no2)c1 | -8.92 |
| Cc1cc(NCCCN2CCOCC2)n2ncc(-c3ccccc3)c2n1 | -21 |
| COC(=O)c1cc(C#N)c(N(C)Cc2ccccc2)nc1C | 8.44 |
| Cc1ccc2nc3c(cc(C#N)c(=O)n3-c3nccs3)c(=O)n2c1 | 2.51 |
| CCOc1ccc(N(CC(=O)N2CCOCC2)S(=O)(=O)c2ccc(F)cc2)cc1 | -16.7 |
| COc1ccc(/C=N/NC(=O)CC(=O)NCc2cccnc2)cc1 | -0.491 |
| COc1ccc(C(=O)N2CCNC(=O)C2CC(=O)Nc2ccc(C)cc2)cc1 (stereo not shown) | 12.6 |

| Compound | hERG current change (%, negative = inhibition) at 10uM [%] |
| --- | --- |
| O=C(O)c1ccccc1-c1ccccc1C(=O)Nc1ccccc1Br | 17.2 |
| CN(C)C(=O)Cn1c(SCC(=O)N2CCCc3ccccc32)nc2ccccc21 | -7.08 |
| CC(C)N1CCN(Cc2ccccc2C(F)(F)F)CC1CCO (stereo not shown) | -17.1 |
| C=CCNC(=S)NNC(=O)COc1ccc(Br)cc1 | 10.2 |
| Cc1cccc(C(=O)NC(NC(=S)Nc2ccc(S(N)(=O)=O)cc2)C(Cl)(Cl)Cl)c1 (stereo not shown) | 19.7 |
| O=C(NCCCC1CCCC1)C1CCC(=O)N(Cc2cccc(C(F)(F)F)c2)C1 (stereo not shown) | -9.84 |
| COc1ccc(-c2cc(C)no2)cc1S(=O)(=O)N1CCN(c2ccccn2)CC1 | -63.7 |
| CCC(C)[C@H]1CN=C(N)N1CCCc1cc(OC)c(OC)c(OC)c1 (stereo partly shown) | 10.1 |
| COC(=O)C(NC(=O)c1ccco1)(Nc1nc(C)cs1)C(F)(F)F (stereo not shown) | -8.46 |
| Cc1ccc(CN(C(=O)N2CCN(C)CC2)S(=O)(=O)c2ccc(C)cc2)cc1 | 3.34 |
| CCCCn1c(N)c(N(CCOC)C(=O)CN2c3ccccc3CC2C)c(=O)[nH]c1=O (stereo not shown) | 16.8 |
| Cc1cc2c(cc1C)NC(c1c(C)n(C)n(-c3ccccc3)c1=O)C1=C(CC(C)(C)CC1=O)N2 (stereo not shown) | -8.97 |
| COC(=O)Cc1ccc(NC(C)=O)cc1 | 8.79 |
| O=C(Nc1ncccc1O)c1ccc2c(c1)OCCO2 | 21.1 |
| Cc1ccc(S(=O)(=O)NCCSCc2ccco2)cc1 | -4.42 |
| Cc1ccc(S(=O)(=O)N2CCCN(S(=O)(=O)c3ccc(C)cc3)CC2)cc1 | -19.5 |
| O=C1NC2=C(C(=O)CCC2)C(c2ccccc2)N1 (stereo not shown) | 20.2 |
| Cc1csc(C(=O)O)c1NC(=O)c1ccc(F)cc1 | 1.02 |
| O=S(=O)(Nc1ccc2c(c1)OCO2)c1ccc(F)c(F)c1 | -24 |
| CN(C)CCCNS(=O)(=O)c1ccc(Oc2ncc(C(F)(F)F)cc2Cl)cc1 | -26.2 |
| COc1ccc(CNC(=O)C(CCSC)NS(=O)(=O)c2ccccc2F)cc1 (stereo not shown) | -2.32 |
| Cc1cc(NC(=O)c2ccc(N3CCCC3)c([N+](=O)[O-])c2)no1 | 21.9 |

| Compound | hERG current change (%, negative = inhibition) at 10uM [%] |
| --- | --- |
| CC(C)c1nc(C#N)c(NCCCn2ccnc2)o1 | 18.7 |
| O=[N+]([O-])c1cccc(S(=O)(=O)c2cccc([N+](=O)[O-])c2)c1 | 15 |
| COc1ccc(C)cc1S(=O)(=O)N(CC(N)=O)Cc1ccccc1 | -5.74 |
| CCCC(=O)Nc1sc(C)c(C)c1C(=O)Nc1cccc(C)c1 | -10.2 |
| O=C(C1=C[C@@H](C2CC2)C[C@@H](OCCCCO)O1)N1CCOCC1 | -1.98 |
| COc1ccc(Nc2sc(C(=O)Nc3cccc(Cl)c3)c(N)c2C(=O)Nc2ccccc2OC)cc1 | 2.38 |
| Cc1nn(-c2ccccc2)c(Cl)c1C(=O)N(C)CC(=O)Nc1cccc(F)c1 | -17.1 |
| CCC(C)(C)NC(=O)C(c1ccc(OC)cc1)N(C(=O)CCC(=O)Nc1cc(C)on1)c1ccccc1F (stereo not shown) | 5.7 |
| c1ccc(CNc2cncnc2)cc1 | 8.56 |
| C/C(=N\Nc1ccc(C(=O)c2c(C)cc3ccccn23)cc1[N+](=O)[O-])c1ccc(O)cc1 | -0.737 |
| O=C(c1cc(-c2ccccc2)nc2ccccc12)N1CCN(C2CCS(=O)(=O)C2)CC1 (stereo not shown) | -25 |
| Cc1ccc(-c2cn3c(=S)[nH]nc3s2)cc1 | 13 |
| CSCCC(NS(=O)(=O)c1ccc(C)cc1)C(=O)NC1CCCCC1 (stereo not shown) | -0.287 |
| O=C1Nc2cc(C(=O)N3CCN(c4ccc(F)cc4)CC3)ccc2NC1CSCc1cccc(F)c1 (stereo not shown) | 15.7 |
| O=C(NCC(=O)N1CCN(c2ccccc2F)CC1)c1cccs1 | -6.55 |
| O=C(O)CN1C(c2ccccc2)=Nc2ccc(Br)cc2C1c1ccccc1 (stereo not shown) | 13.9 |
| O=c1c(-n2cncn2)c[nH]n1-c1cccc(Cl)n1 | 17.3 |
| COc1ccc(CN(CC(=O)NC2CCCC2)C(=O)c2ccc(-c3ccccc3)[nH]2)cc1 | -19.9 |
| COC(=O)c1cc(O)c(O)c(O)c1 | 3.4 |
| Cc1ccc(N(C(=O)C(F)(F)F)C(C(=O)NC2CCCCC2)c2cccs2)cc1C (stereo not shown) | 7.36 |
| CCOC(=O)C1=C(c2ccccc2)NC(=O)NC1c1cc(Br)c(O)c(OC)c1 (stereo not shown) | -4.97 |
| CC(C)C(C(=O)Nc1nccs1)c1ccccc1 (stereo not shown) | 4.12 |

| Compound | hERG current change (%, negative = inhibition) at 10uM [%] |
| --- | --- |
| CC(=O)NC(CCS(C)(=O)=O)C(=O)Nc1ccc2c(c1)OCCO2 (stereo not shown) | -18.1 |
| CCC(=NCc1ccc(F)cc1)c1c(O)n(C)c(=O)n(C)c1=O | -26.6 |
| O=[N+]([O-])c1ccc2c(c1)nc1n2CCN(CC2CCCO2)C1 (stereo not shown) | -10.9 |
| CC(C)c1ccc(C(=O)Nc2nnc(S(=O)(=O)N3CCOCC3)s2)cc1 | -2.56 |
| CCn1c(SCC(=O)Nc2ccccc2)nc2nc3c(cc2c1=O)COC(C)(C)C3 | -61.8 |
| O=C(Cc1ccc(S(=O)(=O)N2CCOCC2)s1)N1CCN(S(=O)(=O)c2ccc(Cl)cc2)CC1 | -26 |
| O=C(Nc1cccc(Cl)c1)c1cc(S(=O)(=O)NCCc2ccc(Cl)cc2)ccc1F | 8.76 |
| O=C(Nc1ccc(-c2csc(Nc3ccccc3)n2)cc1)c1ccccc1 | 10.6 |
| C[C@H]1CN=C(N(C)C)N1CCCC1CCCC1 | -37.8 |
| O=S(=O)(Cc1ccccc1)Nc1ccc(S(=O)(=O)NCC2CCCO2)cc1 (stereo not shown) | 7.21 |
| O=C(Nc1ccc(S(=O)(=O)NC2=NCCCCC2)cc1)c1ccco1 | 2.7 |
| Cc1cc(N2CCOCC2)n2nc(-c3cccc(F)c3)cc2n1 | 0.119 |
| CC(C)N(C(=O)C(F)(F)F)C(C(=O)NC1CCCCC1)c1ccncc1 (stereo not shown) | -10.1 |
| COc1ccc(S(=O)(=O)Nc2ccc(S(=O)(=O)N3CCCCC3)cc2)cc1OC | -10.2 |
| S=C(NCc1ccc2c(c1)OCO2)NCc1ccco1 | 0.766 |
| CC1CCN(C(=O)CSC2=NS(=O)(=O)c3cc(F)ccc3N2)CC1 | -2.95 |
| COc1cc(Cl)c(S(=O)(=O)NCCCn2ccnc2)cc1Cl | 3.34 |
| CCOC(=O)C1CCCN(C(=O)c2cc3ccccc3oc2=O)C1 (stereo not shown) | 17.8 |
| Cc1ccc(C(=O)NCC(c2ccco2)N2CCCCC2)s1 (stereo not shown) | -42.5 |
| NC(=O)CC(NC(=O)Cc1ccc(Cl)cc1)c1ccc(NCCN2CCOCC2)c([N+](=O)[O-])c1 (stereo not shown) | 19.9 |
| CC(=O)Nc1ccccc1-c1nnc(SCc2ccccc2Cl)[nH]c1=O | 4.86 |
| CC(C)Oc1ccc(C2C(C(=O)c3ccco3)=C(O)C(=O)N2Cc2cccnc2)cc1 (stereo not shown) | 15.8 |
